{"source": "the supplement of paper PMC8728848", "test_in_all_cases": "glycan array binding signal (z-score within array); higher = stronger binding", "settings_in_all_cases": "glycan notation: IUPAC condensed, linker removed", "key": {"[1]": {"biological_target": "Neu5Ac(a2-3)Gal(b1-3)[Fuc(a1-4)]GlcNAc", "procedure,_shortened": "(§1)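 Glycan array data came from 3228 arrays in the Consortium for Functional Glycomics database, and only arrays with an available protein sequence were kept. Glycan names were put into IUPAC-condensed notation, and columns mapping to the same glycan were averaged. The binding signal is a within-array Z-score, averaged across arrays of one protein sequence run at different concentrations or buffers and across linkers. A negative Z-score can be read as non-binding.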"}, "[2]": {"biological_target": "Neu5Ac(a2-3)Gal(b1-3)[Fuc(a1-4)]GlcNAc(b1-3)Gal(b1-3)[Fuc(a1-4)]GlcNAc", "procedure,_shortened": "as §1"}, "[3]": {"biological_target": "Neu5Ac(a2-3)Gal(b1-3)[Fuc(a1-4)]GlcNAc(b1-3)Gal(b1-4)[Fuc(a1-3)]GlcNAc", "procedure,_shortened": "as §1"}, "[4]": {"biological_target": "Neu5Ac(a2-3)Gal(b1-3)[GlcNAc(b1-6)]GalNAc", "procedure,_shortened": "as §1"}, "[5]": {"biological_target": "Neu5Ac(a2-3)Gal(b1-3)[Neu5Ac(a2-6)]GalNAc", "procedure,_shortened": "as §1"}, "[6]": {"biological_target": "Neu5Ac(a2-3)Gal(b1-3)[Neu5Ac(a2-6)]GlcNAc(b1-3)[Fuc(a1-3)[Gal(b1-4)]GlcNAc(b1-6)]Gal(b1-4)Glc", "procedure,_shortened": "as §1"}, "[7]": {"biological_target": "Neu5Ac(a2-3)Gal(b1-3)]Neu5Ac(a2-3)Gal(b1-4)]GlcNAc", "procedure,_shortened": "as §1"}, "Neu5Ac(a2-3)Gal(b1-4)Glc": {"biological_target": "Neu5Ac(a2-3)Gal(b1-4)Glc", "procedure,_shortened": "as §1"}, "[8]": {"biological_target": "Neu5Ac(a2-3)Gal(b1-4)GlcNAc", "procedure,_shortened": "as §1"}, "[9]": {"biological_target": "Neu5Ac(a2-3)Gal(b1-4)GlcNAc(b1-2)Man", "procedure,_shortened": "as §1"}, "[10]": {"biological_target": "Neu5Ac(a2-3)Gal(b1-4)GlcNAc(b1-2)Man(a1-3)[GlcNAc(b1-4)][Neu5Ac(a2-3)Gal(b1-4)GlcNAc(b1-2)Man(a1-6)]Man(b1-4)GlcNAc(b1-4)GlcNAc", "procedure,_shortened": "as §1"}, "[11]": {"biological_target": "Neu5Ac(a2-3)Gal(b1-4)GlcNAc(b1-2)Man(a1-3)[Neu5Ac(a2-3)Gal(b1-4)GlcNAc(b1-2)Man(a1-6)]Man(b1-4)GlcNAc(b1-4)GlcNAc", "procedure,_shortened": "as §1"}, "[12]": {"biological_target": "Neu5Ac(a2-3)Gal(b1-4)GlcNAc(b1-2)Man(a1-3)[Neu5Ac(a2-3)Gal(b1-4)GlcNAc(b1-2)Man(a1-6)]Man(b1-4)GlcNAc(b1-4)[Fuc(a1-6)]GlcNAc", "procedure,_shortened": "as §1"}, "[13]": {"biological_target": "Neu5Ac(a2-3)Gal(b1-4)GlcNAc(b1-2)Man(a1-3)[Neu5Ac(a2-6)Gal(b1-4)GlcNAc(b1-2)Man(a1-6)]Man(b1-4)GlcNAc(b1-4)GlcNAc", "procedure,_shortened": "as §1"}, "[14]": {"biological_target": "Neu5Ac(a2-3)Gal(b1-4)GlcNAc(b1-2)[Neu5Ac(a2-3)Gal(b1-4)GlcNAc(b1-4)]Man(a1-3)[GlcNAc(b1-4)][Neu5Ac(a2-3)Gal(b1-4)GlcNAc(b1-2)[Neu5Ac(a2-3)Gal(b1-4)GlcNAc(b1-6)]Man(a1-6)]Man(b1-4)GlcNAc(b1-4)GlcNAc", "procedure,_shortened": "as §1"}, "[15]": {"biological_target": "Neu5Ac(a2-3)Gal(b1-4)GlcNAc(b1-2)[Neu5Ac(a2-3)Gal(b1-4)GlcNAc(b1-4)]Man(a1-3)[GlcNAc(b1-4)][Neu5Ac(a2-3)Gal(b1-4)GlcNAc(b1-4)Man(a1-6)]Man(b1-4)GlcNAc(b1-4)GlcNAc", "procedure,_shortened": "as §1"}, "[16]": {"biological_target": "Neu5Ac(a2-3)Gal(b1-4)GlcNAc(b1-2)[Neu5Ac(a2-3)Gal(b1-4)GlcNAc(b1-6)]Man(a1-6)[Neu5Ac(a2-3)Gal(b1-4)GlcNAc(b1-2)Man(a1-3)]Man(b1-4)GlcNAc(b1-4)GlcNAc", "procedure,_shortened": "as §1"}, "[17]": {"biological_target": "Neu5Ac(a2-3)Gal(b1-4)GlcNAc(b1-2)[Neu5Ac(a2-3)Gal(b1-4)GlcNAc(b1-6)]Man(a1-6)[Neu5Ac(a2-3)Gal(b1-4)GlcNAc(b1-2)Man(a1-3)][GlcNAc(b1-4)]Man(b1-4)GlcNAc(b1-4)GlcNAc", "procedure,_shortened": "as §1"}, "[18]": {"biological_target": "Neu5Ac(a2-3)Gal(b1-4)GlcNAc(b1-3)Gal", "procedure,_shortened": "as §1"}, "[19]": {"biological_target": "Neu5Ac(a2-3)Gal(b1-4)GlcNAc(b1-3)Gal(b1-3)GlcNAc", "procedure,_shortened": "as §1"}, "[20]": {"biological_target": "Neu5Ac(a2-3)Gal(b1-4)GlcNAc(b1-3)Gal(b1-4)GlcNAc", "procedure,_shortened": "as §1"}, "[21]": {"biological_target": "Neu5Ac(a2-3)Gal(b1-4)GlcNAc(b1-3)Gal(b1-4)GlcNAc(b1-2)Man(a1-3)[Neu5Ac(a2-3)Gal(b1-4)GlcNAc(b1-3)Gal(b1-4)GlcNAc(b1-2)Man(a1-6)]Man(b1-4)GlcNAc(b1-4)GlcNAc", "procedure,_shortened": "as §1"}, "[22]": {"biological_target": "Neu5Ac(a2-3)Gal(b1-4)GlcNAc(b1-3)Gal(b1-4)GlcNAc(b1-3)Gal(b1-4)GlcNAc", "procedure,_shortened": "as §1"}, "[23]": {"biological_target": "Neu5Ac(a2-3)Gal(b1-4)GlcNAc(b1-3)Gal(b1-4)GlcNAc(b1-3)Gal(b1-4)GlcNAc(b1-2)Man(a1-3)[Neu5Ac(a2-3)Gal(b1-4)GlcNAc(b1-3)Gal(b1-4)GlcNAc(b1-3)Gal(b1-4)GlcNAc(b1-2)Man(a1-6)]GalNAc", "procedure,_shortened": "as §1"}, "[24]": {"biological_target": "Neu5Ac(a2-3)Gal(b1-4)GlcNAc(b1-3)Gal(b1-4)GlcNAc(b1-3)GalNAc", "procedure,_shortened": "as §1"}, "[25]": {"biological_target": "Neu5Ac(a2-3)Gal(b1-4)GlcNAc(b1-3)Gal(b1-4)GlcNAc(b1-3)[Neu5Ac(a2-3)Gal(b1-4)GlcNAc(b1-3)Gal(b1-4)GlcNAc(b1-6)]GalNAc", "procedure,_shortened": "as §1"}, "[26]": {"biological_target": "Neu5Ac(a2-3)Gal(b1-4)GlcNAc(b1-3)Gal(b1-4)GlcNAc(b1-6)[Gal(b1-3)]GalNAc", "procedure,_shortened": "as §1"}, "[27]": {"biological_target": "Neu5Ac(a2-3)Gal(b1-4)GlcNAc(b1-3)Gal(b1-4)[Fuc(a1-3)]GlcNAc", "procedure,_shortened": "as §1"}, "[28]": {"biological_target": "Neu5Ac(a2-3)Gal(b1-4)GlcNAc(b1-3)GalNAc", "procedure,_shortened": "as §1"}, "[29]": {"biological_target": "Neu5Ac(a2-3)Gal(b1-4)GlcNAc(b1-3)[Neu5Ac(a2-3)Gal(b1-4)GlcNAc(b1-6)]GalNAc", "procedure,_shortened": "as §1"}}, "note": "The other results are listed elsewhere or left out.", "data": [{"binder": "PX9937A-bvu-521-23-521 (Bacteroides vulgatus) (protein) LDLAPEDYYGAGNFWKEASQPKAFMLGLHAQLRSYYDMFYTLGELRGGTQRVGTSSLNTSLNYADIRSQNISEDIPGISNWNGLYSPIMQVNHFIQEVENGCTFLDDATRSRYLGQAYGMRALYYFMLYRTFGGVPLITKVDILDGKPSADKFYVERATPEATMEFIKADINKSENYFGNNTSFDAYDWSRYATLMLKAEIYMWAAKVSITGFTATGATDLQTAKTALSGIIGHFELMDNFASIFSCDNKKNTEIIFAMPFIEGEASNDGGRFLYQDAVFLGQAYGRNGKVIEKDTLNLKGTGGVFRDEYTEDFWKTFKEGDSRRDATFMEYYMKNDNGTLSEFGCVMKKRIGTINSNDNRIYISDIPVYRYADALLMMAEIENGLNNPCASYINEVRKRAYGDTFEENKYTEGSYAENELAILQERDKEFVSEGKRWFDVLRMHDASGRSLVFSANANYPGTNPILGTEEAYKMLWPVNIGTLNVNPLLTQTPGYGKK", "values": [{"measurement": "glycan array binding signal (z-score)", "setting": "[1]", "result": -0.235}, {"measurement": "glycan array binding signal (z-score)", "setting": "[2]", "result": 0.06}, {"measurement": "glycan array binding signal (z-score)", "setting": "[3]", "result": 0.754}, {"measurement": "glycan array binding signal (z-score)", "setting": "[4]", "result": -0.458}, {"measurement": "glycan array binding signal (z-score)", "setting": "[5]", "result": 0.442}, {"measurement": "glycan array binding signal (z-score)", "setting": "[6]", "result": 0.681}, {"measurement": "glycan array binding signal (z-score)", "setting": "[7]", "result": 0.243}, {"measurement": "glycan array binding signal (z-score)", "setting": "Neu5Ac(a2-3)Gal(b1-4)Glc", "result": 0.96}, {"measurement": "glycan array binding signal (z-score)", "setting": "[8]", "result": -0.358}, {"measurement": "glycan array binding signal (z-score)", "setting": "[9]", "result": 0.022}, {"measurement": "glycan array binding signal (z-score)", "setting": "[10]", "result": -0.062}, {"measurement": "glycan array binding signal (z-score)", "setting": "[11]", "result": 0.086}, {"measurement": "glycan array binding signal (z-score)", "setting": "[12]", "result": -0.188}, {"measurement": "glycan array binding signal (z-score)", "setting": "[13]", "result": -0.427}, {"measurement": "glycan array binding signal (z-score)", "setting": "[14]", "result": -0.301}, {"measurement": "glycan array binding signal (z-score)", "setting": "[15]", "result": -0.452}, {"measurement": "glycan array binding signal (z-score)", "setting": "[16]", "result": 0.243}, {"measurement": "glycan array binding signal (z-score)", "setting": "[17]", "result": -0.581}, {"measurement": "glycan array binding signal (z-score)", "setting": "[18]", "result": -0.39}, {"measurement": "glycan array binding signal (z-score)", "setting": "[19]", "result": 0.011}, {"measurement": "glycan array binding signal (z-score)", "setting": "[20]", "result": -0.389}, {"measurement": "glycan array binding signal (z-score)", "setting": "[21]", "result": -0.391}, {"measurement": "glycan array binding signal (z-score)", "setting": "[22]", "result": -0.363}, {"measurement": "glycan array binding signal (z-score)", "setting": "[23]", "result": -0.01}, {"measurement": "glycan array binding signal (z-score)", "setting": "[24]", "result": -0.129}, {"measurement": "glycan array binding signal (z-score)", "setting": "[25]", "result": 1.52}, {"measurement": "glycan array binding signal (z-score)", "setting": "[26]", "result": -0.387}, {"measurement": "glycan array binding signal (z-score)", "setting": "[27]", "result": -0.048}, {"measurement": "glycan array binding signal (z-score)", "setting": "[28]", "result": -0.703}, {"measurement": "glycan array binding signal (z-score)", "setting": "[29]", "result": -0.163}]}]}
